Measurements published in patent publication US20250179192A1 (PHARMABCINE, published 2025).

Experiments:
VEGFR2 (KDR) on HUVECs = molecular target: T1, VEGFR2 (KDR) on HUVECs (human, UniProt P35968); experiment: FACS on HUVECs, 5 nM, anti-human IgG-PE secondary; secondary only 65.7
T1 construct: Endogenous receptor on HUVECs; also called KDR (VEGFR-2)
Experimental: To determine the binding activity of the fusion protein to HUVECs, FACS analysis was performed using the fusion protein and control antibodies (6A6, 6A6×DLL4, D4, Minod-Fc).
Specifically, HUVECs (LONZA, Cat No. C2519A) were cultured at 37° C. and 5% CO₂ using a plate coated with 2% gelatin and VascuLife medium complete kit (Lifeline Cell Technology, Cat No. #LCT-LL-0005). The cells were prepared at a concentration of 2×10⁷ cells/ml in FACS buffer (0.5% FBS, 0.05% sodium azide in PBS) and dispensed at 50 μl into each of FACS tubes. 100 μl of each antibody at a concentration of 5 nM was mixed in the FACS tube, followed by reaction at 4° C. for 30 minutes. After completion of reaction, 2 ml of FACS buffer was added to each tube, followed by centrifugation at 1500 rpm for 3 minutes. The supernatant was removed, the cells were resuspended, and 100 μl of anti-human IgG-PE antibody (1:200, Bethyl, #A80-248PE) was added, followed by reaction at 4° C. for 20 minutes. 2 ml of FACS buffer was added to each FACS tube, followed by centrifugation at 1500 rpm for 3 minutes. The separated supernatant was removed, the cells were resuspended in 200 μl of FACS buffer, and the binding activity was analyzed using FACS (Beckton Dickinson, Lyric).

[1] = molecular target: T2, hDLL4 expressed on HEK293 cells (human, UniProt Q9NR61 27-685); experiment: FACS on hDLL4-overexpressing HEK293 cells (293-DLL4), 5 nM, anti-human IgG-PE secondary; secondary only 82.0
T2 construct: whole, on cells; also called DLL4-overexpressed HEK293 cells
Experimental: Specifically, the pcDNA-hDLL4 vector synthesized by GeneArt was transfected into HEK293 cells using Lipofectamin™ 2000 (Invitrogen #1168-019, USA), and neomycin (Gibco #10131, 50 mg/ml) was added for selection. Then, all grown cells were collected and cultured in a pool state. Then, 23 types of single colonies were obtained by culture using a limiting dilution method, and among the single colonies, one type of cell line that highly overexpressed hDLL4 was selected and tested. The selected cells were prepared to a concentration of 2×10⁷ cells/ml in FACS buffer (0.5% FBS, 0.05% sodium azide in PBS) and dispensed at 50 μl into each of FACS tubes. 5 nM fusion protein and control antibodies (6A6, 6A6×DLL4, D4, D4×DLL4, Minod-Fc) were added in 100 μl to each of the FACS tubes containing the cells, followed by reaction at 4° C. for 30 minutes. After completion of reaction, 2 ml of FACS buffer was added to each tube, followed by centrifugation at 1500 rpm for 3 minutes. The supernatant was removed, the cells were well resuspended, and then 100 μl of anti-human IgG-PE antibody (1:200, […], #A80-248PE) was added, followed by reaction at 4° C. for 20 minutes. […] The separated supernatant was removed, the cells were resuspended in 200 μl of FACS buffer, and the binding activity was analyzed using FACS (Beckton Dickinson, Lyric).

hDLL4 = molecular target: T3, hDLL4 (human, UniProt Q9NR61 in part, limits assumed); experiment: SPR Biacore T200, fusion protein captured on Protein A chip, antigen as analyte, 1:1 model
T3 construct: Analyte in SPR; also called human delta-like ligand 4 (soluble antigen protein)
Experimental: (§1) The binding ability of the selected fusion protein to the antigen was measured using SPR (Biacore T200, Cytiva). The fusion protein was captured and analyzed using the antigen protein as an analyte. Using a Protein A chip, the fusion protein was immobilized on the surface according to the manufacturer's instructions. The fusion protein on the sensor chip was diluted with PBS-T running buffer to a concentration of 5 μg/ml and injected at a flow rate of 10 μl/min to reach about 200 RU. The antigen was diluted with PBS-T running buffer by concentration and injected at a flow rate of 30 μl/min for 4 minutes, and the dissociation time was set to 10 minutes. To remove the fusion protein bound every cycle, a regeneration solution (10 mM glycine-HCl, pH 1.5) was injected at a flow rate of 30 μl/min for 1 minute. The experimental results were calculated using the 1:1 binding model of BIA evaluation software version 1.0.

hKDR-ECD = molecular target: T4, hKDR-ECD (human, UniProt P35968 20-764); experiment: as above
T4 construct: extracellular domain; Analyte in SPR; also called human KDR (VEGFR-2) extracellular domain
Experimental: as §1

hDLL4, sequence (Q9NR61 27-524 limits assumed): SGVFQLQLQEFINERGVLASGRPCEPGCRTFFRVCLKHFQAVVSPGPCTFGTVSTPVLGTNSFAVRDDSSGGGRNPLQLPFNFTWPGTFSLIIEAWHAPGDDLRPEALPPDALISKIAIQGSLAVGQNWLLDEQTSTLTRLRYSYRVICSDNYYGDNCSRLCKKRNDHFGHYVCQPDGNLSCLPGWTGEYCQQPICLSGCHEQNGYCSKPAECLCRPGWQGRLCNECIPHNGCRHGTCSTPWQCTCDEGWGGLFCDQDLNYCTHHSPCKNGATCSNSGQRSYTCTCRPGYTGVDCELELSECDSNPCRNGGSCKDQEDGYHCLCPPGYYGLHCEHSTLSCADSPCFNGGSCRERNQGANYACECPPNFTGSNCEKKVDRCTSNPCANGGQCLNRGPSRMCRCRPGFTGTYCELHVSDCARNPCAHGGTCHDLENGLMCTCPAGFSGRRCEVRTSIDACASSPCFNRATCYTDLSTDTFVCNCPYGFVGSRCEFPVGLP
hKDR-ECD, sequence (P35968 20-764): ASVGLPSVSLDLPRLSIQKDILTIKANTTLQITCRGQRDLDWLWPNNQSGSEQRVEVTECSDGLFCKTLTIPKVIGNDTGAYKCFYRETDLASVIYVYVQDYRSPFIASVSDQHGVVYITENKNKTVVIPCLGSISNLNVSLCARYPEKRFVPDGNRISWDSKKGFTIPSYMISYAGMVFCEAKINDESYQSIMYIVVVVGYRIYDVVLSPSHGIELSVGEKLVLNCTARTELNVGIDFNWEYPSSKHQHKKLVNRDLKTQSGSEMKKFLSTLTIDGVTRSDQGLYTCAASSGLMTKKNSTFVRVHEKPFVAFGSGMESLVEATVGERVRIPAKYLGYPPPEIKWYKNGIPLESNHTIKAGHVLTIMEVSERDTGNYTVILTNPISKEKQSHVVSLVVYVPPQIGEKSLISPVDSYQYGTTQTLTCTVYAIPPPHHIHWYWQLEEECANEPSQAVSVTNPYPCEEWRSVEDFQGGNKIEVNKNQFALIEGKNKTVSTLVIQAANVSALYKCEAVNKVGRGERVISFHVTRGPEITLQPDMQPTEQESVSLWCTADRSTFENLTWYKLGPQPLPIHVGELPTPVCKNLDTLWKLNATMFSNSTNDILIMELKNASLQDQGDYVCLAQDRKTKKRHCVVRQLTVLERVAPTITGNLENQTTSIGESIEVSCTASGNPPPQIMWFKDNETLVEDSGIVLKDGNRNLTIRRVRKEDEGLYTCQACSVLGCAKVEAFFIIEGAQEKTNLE
VEGFR2 (KDR) on HUVECs, sequence (P35968 20-1356 limits assumed): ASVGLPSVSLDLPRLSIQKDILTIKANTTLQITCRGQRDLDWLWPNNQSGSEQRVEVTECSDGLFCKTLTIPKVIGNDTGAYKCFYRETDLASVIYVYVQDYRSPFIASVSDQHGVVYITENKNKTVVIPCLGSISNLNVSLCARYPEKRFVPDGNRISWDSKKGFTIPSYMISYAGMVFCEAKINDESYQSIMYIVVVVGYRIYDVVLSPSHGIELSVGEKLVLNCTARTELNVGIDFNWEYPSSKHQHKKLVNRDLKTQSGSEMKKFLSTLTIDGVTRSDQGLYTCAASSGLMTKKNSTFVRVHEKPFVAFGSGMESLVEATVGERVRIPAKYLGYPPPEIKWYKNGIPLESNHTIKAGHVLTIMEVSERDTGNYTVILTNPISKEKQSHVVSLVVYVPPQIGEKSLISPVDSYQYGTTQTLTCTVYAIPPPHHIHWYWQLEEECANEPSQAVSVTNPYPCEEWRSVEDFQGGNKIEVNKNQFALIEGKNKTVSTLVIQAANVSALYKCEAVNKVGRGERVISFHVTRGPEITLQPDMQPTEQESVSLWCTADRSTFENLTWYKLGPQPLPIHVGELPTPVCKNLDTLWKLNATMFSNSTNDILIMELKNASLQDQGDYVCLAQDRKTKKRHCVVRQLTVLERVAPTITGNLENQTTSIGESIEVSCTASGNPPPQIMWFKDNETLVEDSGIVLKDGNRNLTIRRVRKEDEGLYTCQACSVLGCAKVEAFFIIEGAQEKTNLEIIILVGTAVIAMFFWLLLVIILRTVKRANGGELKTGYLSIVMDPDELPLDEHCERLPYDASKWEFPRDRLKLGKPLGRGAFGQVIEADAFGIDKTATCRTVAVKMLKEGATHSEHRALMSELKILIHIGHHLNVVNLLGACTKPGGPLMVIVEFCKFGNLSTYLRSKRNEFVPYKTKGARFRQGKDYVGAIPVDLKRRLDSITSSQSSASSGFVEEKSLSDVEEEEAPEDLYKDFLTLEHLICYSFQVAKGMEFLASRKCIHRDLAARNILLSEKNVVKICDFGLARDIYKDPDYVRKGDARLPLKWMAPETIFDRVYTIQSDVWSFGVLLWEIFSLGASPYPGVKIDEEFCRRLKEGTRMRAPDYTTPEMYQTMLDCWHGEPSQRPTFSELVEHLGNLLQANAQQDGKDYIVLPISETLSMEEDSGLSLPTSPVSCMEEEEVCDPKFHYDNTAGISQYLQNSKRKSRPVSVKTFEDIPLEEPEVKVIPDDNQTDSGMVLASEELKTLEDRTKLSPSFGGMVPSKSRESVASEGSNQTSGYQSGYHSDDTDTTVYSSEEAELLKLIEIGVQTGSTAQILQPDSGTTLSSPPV

B1: D4×DLL4 fusion protein (bispecific antibody, IgG1)
heavy: EVQLVESGGGLVQPGGSLRLSCAASGYTFSSYWMSWVRQAPGKGLEWVSEINPGNGHTNYNEKFKSRFTISRDKSKNTLYLQMNSLRAEDTAVYYCARHWGPSLTSPFDYWGQGTLVTVSS[sequence of human IgG1 constant region omitted]
light: not shown
notes: also called D4xDLL4; the fusion protein
- Geometric Mean : PE-A (VEGFR2 (KDR) on HUVECs): 436
- Geometric Mean : PE-A [1]: 954
- Kd (hDLL4): 1.14 nM
- Pmax (hDLL4): 75
- koff (hDLL4): 0.000105 s⁻¹
- kon (hDLL4): 92300 M⁻¹ s⁻¹
- Kd (hKDR-ECD): 0.726 nM
- Pmax (hKDR-ECD): 411
- koff (hKDR-ECD): 6.74e-05 s⁻¹
- kon (hKDR-ECD): 92800 M⁻¹ s⁻¹
